# Results published in the antibiotic and cytotoxicity screens of Wong et al. (2023).
# The other results are listed elsewhere or left out.
# Legend:
# HSkMC = human skeletal muscle cells; test: cytotoxicity call (relative viability < 0.9); conditions: 10 µM
# HepG2 = test: cytotoxicity call (relative viability < 0.9); conditions: 10 µM
# S. aureus RN4220 = test: growth inhibition call (relative growth <= 0.2); conditions: 50 µM
SMILES,cytotoxicity call (HSkMC),cytotoxicity call (HepG2),growth inhibition call (S. aureus RN4220)
C[C@@H]1CCCCO[C@@H](CN(C)Cc2ccncc2)[C@@H](C)CN([C@H](C)CO)C(=O)c2cc(NS(=O)(=O)c3ccc(Cl)cc3)ccc2O1,inactive,inactive,inactive
CN(C)CC(=O)N[C@@H]1CC[C@@H](CC(=O)O)O[C@@H]1CO,inactive,inactive,inactive
CN1C(=O)c2cc(NC(=O)c3cccs3)ccc2OC[C@H]2O[C@H](CC(=O)NCCN3CCCCC3)CC[C@@H]21,inactive,inactive,inactive
C[C@@H]1CCCCO[C@H](CN(C)Cc2ccccc2)[C@@H](C)CN([C@H](C)CO)C(=O)c2cc(NC(=O)CCCCCC(=O)Nc3ccccc3N)ccc2O1,inactive,inactive,inactive
Cc1cccc(S(=O)(=O)N2C[C@@H](O)COC[C@H]3O[C@H](CC(=O)NCc4ccncn4)CC[C@@H]32)c1,inactive,inactive,inactive
COc1ccc(S(=O)(=O)N(C)C[C@@H]2Oc3ccc(NS(C)(=O)=O)cc3CC(=O)N([C@@H](C)CO)C[C@@H]2C)cc1,inactive,inactive,inactive
C[C@@H]1CN([C@@H](C)CO)C(=O)c2cc(NS(=O)(=O)c3cccs3)ccc2O[C@@H]1CN(C)S(=O)(=O)c1ccccc1,inactive,inactive,inactive
CC(=O)OCC(=O)O[C@@H]1[C@H]2[C@@H](OC(=O)c3ccccc3)[C@@H](C)C[C@]2(O)[C@H](OC(C)=O)[C@@]2(C)[C@H](OC(C)=O)[C@]1(OC(C)=O)C[C@H]1C(=O)C(C)(C)C[C@@H]12,inactive,inactive,inactive
CC(=O)c1cncnc1,inactive,inactive,inactive
C[C@@H]1CCCCO[C@H](CN(C)Cc2ccc3c(c2)OCO3)[C@@H](C)CN([C@H](C)CO)C(=O)c2cc(NC(=O)c3ccccc3)ccc2O1,inactive,inactive,inactive
COc1ccc(CN(C)C[C@@H]2Oc3ccc(NC(=O)Cn4cnnn4)cc3C(=O)N([C@H](C)CO)C[C@H]2C)cc1,inactive,inactive,inactive
Cc1noc(C)c1NC(=O)Nc1ccc2c(c1)C(=O)N([C@@H](C)CO)C[C@H](C)[C@H](CN(C)C(=O)NC(C)C)O2,inactive,inactive,inactive
COc1ccc(-c2cnc3c(c2)C(=O)N([C@H](C)CO)C[C@H](C)[C@H](CN(C)S(=O)(=O)c2cccs2)O3)cc1,inactive,inactive,inactive
CN1CCN(C(=O)C[C@@H]2CC[C@@H]3[C@H](COc4ccc(NC(=O)c5cscn5)cc4C(=O)N3C)O2)CC1,inactive,inactive,inactive
O=C(C[C@H]1CC[C@H](NC(=O)c2ccc(F)cc2)[C@H](CO)O1)NCc1ccncn1,inactive,inactive,inactive
C[C@@H]1CN([C@H](C)CO)C(=O)Cc2cc(NS(C)(=O)=O)ccc2O[C@@H]1CN(C)C,inactive,inactive,inactive
Cc1ccc(S(=O)(=O)Nc2ccc3c(c2)C(=O)N([C@H](C)CO)C[C@H](C)[C@@H](CN(C)S(=O)(=O)c2ccc(C)cc2)OCCCC[C@@H](C)O3)cc1,inactive,inactive,inactive
CCS(=O)(=O)N1C[C@]2(C1)CN([C@@H](CO)c1[nH]c3cc(ccc3c12)OC)S(=O)(=O)c1cccc(c1)OC,inactive,inactive,inactive
Cc1ccc(S(=O)(=O)N(C)C[C@@H]2OCCCC[C@H](C)Oc3ccc(NC(=O)Cc4ccccc4)cc3C(=O)N([C@H](C)CO)C[C@H]2C)cc1,inactive,inactive,inactive
Oc1cccc2ccccc12,active,inactive,inactive
C[C@@H]1CN([C@H](C)CO)C(=O)c2cccc(NC(=O)Nc3cccc4ccccc34)c2O[C@H]1CN(C)S(=O)(=O)c1ccccc1,inactive,inactive,inactive
Cc1noc(C)c1S(=O)(=O)Nc1cccc2c1O[C@H](CN(C)Cc1ccccc1)[C@H](C)CN([C@H](C)CO)C2=O,inactive,inactive,inactive
C[C@@H]1CN([C@H](C)CO)C(=O)c2cccc(NC(=O)c3ccc(-c4nccs4)cc3)c2O[C@H]1CN(C)C(=O)Nc1cccc2ccccc12,inactive,inactive,inactive
CC(=O)N1CCC(C(=O)O)CC1,inactive,inactive,inactive
CC1(C)CO[C@@H](CC(=O)O)CN1,inactive,inactive,inactive
CO[C@@H]1CN(C)C(=O)c2cc(NS(=O)(=O)c3cn(C)cn3)ccc2OC[C@@H](C)N(Cc2cccc(F)c2)C[C@@H]1C,inactive,inactive,inactive
C[C@@H]1CN([C@H](C)CO)C(=O)c2cccc(NC(=O)c3ccc(-c4nccs4)cc3)c2O[C@H]1CN(C)Cc1ccc(Cl)c(Cl)c1,inactive,inactive,inactive
C[C@H](CO)N1C[C@H](C)[C@H](CN(C)S(=O)(=O)c2cccs2)Oc2c(NC(=O)Nc3cccc4ccccc34)cccc2C1=O,inactive,inactive,inactive

SMILES,cytotoxicity call (HSkMC),cytotoxicity call (HepG2),growth inhibition call (S. aureus RN4220)
C[C@@H]1CN([C@H](C)CO)C(=O)c2ccccc2-c2ccccc2CO[C@H]1CN(C)S(=O)(=O)c1cn(C)cn1,inactive,inactive,inactive
COc1ccc(S(=O)(=O)N(C)C[C@@H]2Oc3cc(C#CC4CC4)ccc3S(=O)(=O)N([C@@H](C)CO)C[C@@H]2C)cc1,inactive,inactive,inactive
COc1ccc(NC(=O)N(C)C[C@@H]2Oc3ccc(NS(=O)(=O)c4c(C)noc4C)cc3C(=O)N([C@H](C)CO)C[C@@H]2C)cc1,inactive,inactive,inactive
Cc1ccc(S(=O)(=O)N(C)C[C@@H]2Oc3c(NS(=O)(=O)c4ccc(F)cc4)cccc3C(=O)N([C@H](C)CO)C[C@@H]2C)cc1,inactive,inactive,inactive
C[C@@H]1CN([C@@H](C)CO)C(=O)CCCn2nncc2CO[C@@H]1CN(C)S(=O)(=O)c1cn(C)cn1,inactive,inactive,inactive
C[C@@H]1CN([C@H](C)CO)C(=O)c2cccc(NC(=O)c3ccncc3)c2O[C@@H]1CN(C)Cc1ccc(C(=O)O)cc1,inactive,inactive,inactive
C[C@H](CO)N1C[C@H](C)[C@@H](CN(C)C(=O)Nc2ccc(C(F)(F)F)cc2)Oc2ccc(NC(=O)Nc3ccc(F)cc3)cc2C1=O,inactive,active,inactive
Cc1noc(C)c1NC(=O)Nc1ccc2c(c1)C(=O)N([C@@H](C)CO)C[C@@H](C)[C@@H](CN(C)Cc1ccncc1)OCCCC[C@H](C)O2,inactive,inactive,inactive
CC(=O)N1CCN(CCOc2ccc(C3CCN(C4=Nn5c(nnc5C(F)(F)F)CC4)CC3)cc2)CC1,inactive,active,inactive
Cc1ccc(S(=O)(=O)N2C[C@@H](O)COC[C@H]3O[C@H](CC(=O)N[C@H]4CCN(Cc5ccccc5)C4)CC[C@@H]32)cc1,inactive,inactive,inactive
C[C@H]1CN([C@@H](C)CO)C(=O)Cc2cc(NC(=O)CCCCCC(=O)Nc3ccccc3N)ccc2O[C@H]1CN(C)C(=O)Nc1ccc(F)cc1,inactive,inactive,inactive
COc1ccc(S(=O)(=O)N(C)C[C@H]2Oc3c(NC(=O)NC(C)C)cccc3C(=O)N([C@H](C)CO)C[C@H]2C)cc1,inactive,inactive,inactive
CNC(=O)[C@H]1O[C@H](n2cnc3c(NCc4cccc(I)c4)nc(Cl)nc32)[C@@H](O)[C@@H]1O,inactive,inactive,inactive
O=C1NS(=O)(=O)c2ccccc21,inactive,inactive,inactive
C[C@@H]1CN([C@@H](C)CO)C(=O)c2c(c3ccccc3n2C)-c2ccccc2CO[C@@H]1CN(C)CC1CCCCC1,inactive,active,inactive
CCCNC(=O)c1cc2c(c(-c3cccc(-c4cc5ccccc5o4)c3)n1)[C@H](CCO)N(C(=O)NC(C)C)C2,inactive,inactive,inactive
CN(C)Cc1cn(CC[C@@H]2CC[C@H](NC(=O)Cc3cccnc3)[C@H](CO)O2)nn1,inactive,inactive,inactive
O=C(CN1CCNCC1)NC1CCCCC1,inactive,inactive,inactive
C[C@@H]1CN([C@@H](C)CO)C(=O)c2cc(NC(=O)Cc3ccccc3)ccc2O[C@H]1CN(C)Cc1ccc(C(=O)Nc2ccccc2N)cc1,inactive,inactive,inactive
Cc1ccc(S(=O)(=O)N(C)C[C@@H]2OCCCC[C@H](C)Oc3ccc(NC(=O)Nc4ccc(C(F)(F)F)cc4)cc3C(=O)N([C@H](C)CO)C[C@H]2C)cc1,inactive,inactive,inactive
C[C@@H]1CN([C@@H](C)CO)C(=O)c2cccc(NS(=O)(=O)c3ccc(Cl)cc3)c2O[C@H]1CN(C)Cc1ccc(Cl)c(Cl)c1,inactive,inactive,inactive
Cc1ccc(S(=O)(=O)Nc2ccc3c(c2)CC(=O)N([C@H](C)CO)C[C@H](C)[C@H](CN(C)Cc2ccc(Cl)c(Cl)c2)O3)cc1,active,active,inactive
Cc1ccc(S(=O)(=O)Nc2ccc3c(c2)C(=O)N([C@H](C)CO)C[C@H](C)[C@H](CN(C)C(=O)NC(C)C)O3)cc1,inactive,inactive,inactive
C[C@@H]1CCCCO[C@H](CN(C)S(=O)(=O)c2ccccc2)[C@H](C)CN([C@@H](C)CO)C(=O)c2cc(NC(=O)C3CCCCC3)ccc2O1,inactive,inactive,inactive
C[C@@H]1CN([C@@H](C)CO)C(=O)c2cc(NC(=O)c3ccncc3)ccc2O[C@@H](C)CCCCO[C@@H]1CN(C)C(=O)NC1CCCCC1,inactive,active,inactive
C[C@@H]1CN([C@H](C)CO)C(=O)c2cc(C#CC(C)(C)O)cnc2O[C@H]1CN(C)C(=O)CN(C)C,inactive,inactive,inactive
COc1ccccc1CNC(=O)C[C@H]1C[C@@H]2c3cc(NC(=O)c4cccnc4)ccc3O[C@@H]2[C@@H](CO)O1,inactive,inactive,inactive
